Test results published in PMC5940305, “The Rab11-binding protein RELCH/KIAA1468 controls intracellular cholesterol distribution” (The Journal of Cell Biology, 2018).
Results are given in words; binding and its absence hold for the method and conditions named. In cells and extracts the contact can be indirect. Some results given as binding are weak or reduced against the parent protein; the word gives no strength.

The chains behind the UniProt entries cited, without tags or fusion partners. Where a name states a change or a piece, a line headed by the entry shows the natural chain unless it says otherwise.
UniProt P62491: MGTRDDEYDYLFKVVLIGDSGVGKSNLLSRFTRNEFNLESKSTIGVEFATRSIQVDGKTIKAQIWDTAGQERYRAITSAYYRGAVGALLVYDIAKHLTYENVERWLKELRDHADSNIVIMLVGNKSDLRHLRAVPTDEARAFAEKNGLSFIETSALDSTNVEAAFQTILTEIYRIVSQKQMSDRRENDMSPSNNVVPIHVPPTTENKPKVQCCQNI

T1: RELCH/KIAA1468, endogenous in mouse brain lysate (mouse (endogenous in mouse brain)) (UniProt Q148V7)
T1 sequence: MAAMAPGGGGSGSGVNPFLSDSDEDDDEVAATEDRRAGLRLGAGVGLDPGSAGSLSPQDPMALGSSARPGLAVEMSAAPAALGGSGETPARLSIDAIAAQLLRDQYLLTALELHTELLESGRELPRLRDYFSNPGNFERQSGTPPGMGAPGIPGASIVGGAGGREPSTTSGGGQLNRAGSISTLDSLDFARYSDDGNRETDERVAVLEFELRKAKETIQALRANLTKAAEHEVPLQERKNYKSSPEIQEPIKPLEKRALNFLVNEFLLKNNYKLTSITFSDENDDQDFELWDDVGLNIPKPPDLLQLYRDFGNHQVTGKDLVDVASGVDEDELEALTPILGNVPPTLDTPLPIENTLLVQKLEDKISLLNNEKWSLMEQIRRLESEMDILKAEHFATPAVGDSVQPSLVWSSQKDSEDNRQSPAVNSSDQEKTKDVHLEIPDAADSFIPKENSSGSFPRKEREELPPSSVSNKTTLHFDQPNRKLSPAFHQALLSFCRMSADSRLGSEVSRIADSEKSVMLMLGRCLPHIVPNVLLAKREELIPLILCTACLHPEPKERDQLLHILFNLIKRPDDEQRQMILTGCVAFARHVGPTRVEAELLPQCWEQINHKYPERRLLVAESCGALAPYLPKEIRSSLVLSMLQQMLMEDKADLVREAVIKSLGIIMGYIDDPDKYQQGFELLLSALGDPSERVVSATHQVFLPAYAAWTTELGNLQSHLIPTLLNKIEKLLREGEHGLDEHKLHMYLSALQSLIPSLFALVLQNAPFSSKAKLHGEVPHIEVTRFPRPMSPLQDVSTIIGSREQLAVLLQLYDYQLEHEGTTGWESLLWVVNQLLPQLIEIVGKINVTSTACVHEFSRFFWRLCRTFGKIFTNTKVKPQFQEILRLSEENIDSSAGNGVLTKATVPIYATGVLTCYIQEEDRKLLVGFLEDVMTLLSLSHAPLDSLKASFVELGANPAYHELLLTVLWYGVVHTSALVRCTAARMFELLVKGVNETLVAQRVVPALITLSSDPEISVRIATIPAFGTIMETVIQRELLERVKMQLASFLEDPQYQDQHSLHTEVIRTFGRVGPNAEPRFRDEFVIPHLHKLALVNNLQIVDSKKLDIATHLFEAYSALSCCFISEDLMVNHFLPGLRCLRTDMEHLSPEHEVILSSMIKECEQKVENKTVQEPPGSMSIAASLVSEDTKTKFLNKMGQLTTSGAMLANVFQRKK


Key:
[1] = target: GST-Rab11a Q70A, loaded with GTP (not stated (human or mouse cDNA cloned)) (UniProt P62491); assay: pull-down; 500 µg GST-Rab11a Q70A on Glutathione Sepharose 4B, 20 mg mouse brain lysate in NL100 with 10 mM MgCl2 and 10 mM GTP, 1 h at 4°C; silver stain, band identified by mass spectrometry, immunoblot with a RELCH antibody; only the target purified
[2] = target: T1, RELCH/KIAA1468, endogenous in mouse brain lysate (mouse (endogenous in mouse brain)); assay: co-IP; rabbit antiserum against RELCH on protein G Sepharose, 10 mg mouse brain lysate in NL100, 2 h at 4°C; silver stain with mass spectrometry and immunoblot with OSBP and RELCH antibodies

| binding [1] | binding [2] | Binder |
| --- | --- | --- |
| binds | – | RELCH/KIAA1468, endogenous in mouse brain lysate (protein, UniProt Q148V7 1-1216) MAAMAPGGGGSGSGVNPFLSDSDEDDDEVAATEDRRAGLRLGAGVGLDPGSAGSLSPQDPMALGSSARPGLAVEMSAAPAALGGSGETPARLSIDAIAAQLLRDQYLLTALELHTELLESGRELPRLRDYFSNPGNFERQSGTPPGMGAPGIPGASIVGGAGGREPSTTSGGGQLNRAGSISTLDSLDFARYSDDGNRETDERVAVLEFELRKAKETIQALRANLTKAAEHEVPLQERKNYKSSPEIQEPIKPLEKRALNFLVNEFLLKNNYKLTSITFSDENDDQDFELWDDVGLNIPKPPDLLQLYRDFGNHQVTGKDLVDVASGVDEDELEALTPILGNVPPTLDTPLPIENTLLVQKLEDKISLLNNEKWSLMEQIRRLESEMDILKAEHFATPAVGDSVQPSLVWSSQKDSEDNRQSPAVNSSDQEKTKDVHLEIPDAADSFIPKENSSGSFPRKEREELPPSSVSNKTTLHFDQPNRKLSPAFHQALLSFCRMSADSRLGSEVSRIADSEKSVMLMLGRCLPHIVPNVLLAKREELIPLILCTACLHPEPKERDQLLHILFNLIKRPDDEQRQMILTGCVAFARHVGPTRVEAELLPQCWEQINHKYPERRLLVAESCGALAPYLPKEIRSSLVLSMLQQMLMEDKADLVREAVIKSLGIIMGYIDDPDKYQQGFELLLSALGDPSERVVSATHQVFLPAYAAWTTELGNLQSHLIPTLLNKIEKLLREGEHGLDEHKLHMYLSALQSLIPSLFALVLQNAPFSSKAKLHGEVPHIEVTRFPRPMSPLQDVSTIIGSREQLAVLLQLYDYQLEHEGTTGWESLLWVVNQLLPQLIEIVGKINVTSTACVHEFSRFFWRLCRTFGKIFTNTKVKPQFQEILRLSEENIDSSAGNGVLTKATVPIYATGVLTCYIQEEDRKLLVGFLEDVMTLLSLSHAPLDSLKASFVELGANPAYHELLLTVLWYGVVHTSALVRCTAARMFELLVKGVNETLVAQRVVPALITLSSDPEISVRIATIPAFGTIMETVIQRELLERVKMQLASFLEDPQYQDQHSLHTEVIRTFGRVGPNAEPRFRDEFVIPHLHKLALVNNLQIVDSKKLDIATHLFEAYSALSCCFISEDLMVNHFLPGLRCLRTDMEHLSPEHEVILSSMIKECEQKVENKTVQEPPGSMSIAASLVSEDTKTKFLNKMGQLTTSGAMLANVFQRKK |
| – | binds | OSBP, endogenous in mouse brain lysate (protein, UniProt Q3B7Z2 1-805) MAATELRGVVGPGPAAIAAPGGGGAGPPAVGGGGGRGDAGPGPGVAAATAATAGGPGPGAGGVAAGGPGSAPPAAGSGGSGAGGSGSAREGWLFKWTNYIKGYQRRWFVLSNGLLSYYRSKAEMRHTCRGTINLATANITVEDSCNFIISNGGAQTYHLKASSEVERQRWVTALELAKAKAVKMLAESDDSGDEESVSQTDKTELQSTLRTLSSKVEDLSTCNDLIAKHGTALQRSLSELESLKLPAESNEKIKQVNERATLFRITSNAMINACRDFLMLAQTHSKKWQKSLQYERDQRIRLEETLEQLAKQHNHLERAFRGATVLPANPPGSAGSGKDQCCSGKGDMSDEDDENEFFDAPEIITMPENLGHKRTGSNISGASSDVSLDEQYKHQLEETKKEKRTRIPYKPNYSLNLWSIMKNCIGKELSKIPMPVNFNEPLSMLQRLTEDLEYHELLDRAAKCENSLEQLCYVAAFTVSSYSTTVFRTSKPFNPLLGETFELDRLEENGYRSICEQVSHHPPAAAHHAESKNGWTLRQEIKITSKFRGKYLSIMPLGTIHCIFHSTGHHYTWKKVTTTVHNIIVGKLWIDQSGEIDIVNHKTGDKCNLKFVPYSYFSRDVARKVTGEVTDPSGKVHFALLGTWDEKMDCFKVQAASGENGGDARQRGHEAEDSRVMLWKRNPLPKNAENMYYFSELALTLNAWEGGTAPTDSRLRPDQRLMENGRWDEANAEKQRLEEKQRLSRKKREAEAAKATEDGTPHDPYKALWFERKKDPVTRELTHIYSGEYWECKEKQDWGSCPDIF |
